The source of these data is publication PMC4336329 (PLoS ONE, 2015).

About 2,200 (0.71%) of roughly 310,000 compounds showed an effect of 50% or more. Effects have a minus sign here. This is one part of the list.

This test deals with human ether-à-go-go-related gene (hERG) potassium channel (human, UniProt Q12809). Briefly: primary screen, population patch clamp on CHO cells stably expressing hERG.
Sequence of human ether-à-go-go-related gene (hERG) potassium channel (Q12809 whole entry, looked up): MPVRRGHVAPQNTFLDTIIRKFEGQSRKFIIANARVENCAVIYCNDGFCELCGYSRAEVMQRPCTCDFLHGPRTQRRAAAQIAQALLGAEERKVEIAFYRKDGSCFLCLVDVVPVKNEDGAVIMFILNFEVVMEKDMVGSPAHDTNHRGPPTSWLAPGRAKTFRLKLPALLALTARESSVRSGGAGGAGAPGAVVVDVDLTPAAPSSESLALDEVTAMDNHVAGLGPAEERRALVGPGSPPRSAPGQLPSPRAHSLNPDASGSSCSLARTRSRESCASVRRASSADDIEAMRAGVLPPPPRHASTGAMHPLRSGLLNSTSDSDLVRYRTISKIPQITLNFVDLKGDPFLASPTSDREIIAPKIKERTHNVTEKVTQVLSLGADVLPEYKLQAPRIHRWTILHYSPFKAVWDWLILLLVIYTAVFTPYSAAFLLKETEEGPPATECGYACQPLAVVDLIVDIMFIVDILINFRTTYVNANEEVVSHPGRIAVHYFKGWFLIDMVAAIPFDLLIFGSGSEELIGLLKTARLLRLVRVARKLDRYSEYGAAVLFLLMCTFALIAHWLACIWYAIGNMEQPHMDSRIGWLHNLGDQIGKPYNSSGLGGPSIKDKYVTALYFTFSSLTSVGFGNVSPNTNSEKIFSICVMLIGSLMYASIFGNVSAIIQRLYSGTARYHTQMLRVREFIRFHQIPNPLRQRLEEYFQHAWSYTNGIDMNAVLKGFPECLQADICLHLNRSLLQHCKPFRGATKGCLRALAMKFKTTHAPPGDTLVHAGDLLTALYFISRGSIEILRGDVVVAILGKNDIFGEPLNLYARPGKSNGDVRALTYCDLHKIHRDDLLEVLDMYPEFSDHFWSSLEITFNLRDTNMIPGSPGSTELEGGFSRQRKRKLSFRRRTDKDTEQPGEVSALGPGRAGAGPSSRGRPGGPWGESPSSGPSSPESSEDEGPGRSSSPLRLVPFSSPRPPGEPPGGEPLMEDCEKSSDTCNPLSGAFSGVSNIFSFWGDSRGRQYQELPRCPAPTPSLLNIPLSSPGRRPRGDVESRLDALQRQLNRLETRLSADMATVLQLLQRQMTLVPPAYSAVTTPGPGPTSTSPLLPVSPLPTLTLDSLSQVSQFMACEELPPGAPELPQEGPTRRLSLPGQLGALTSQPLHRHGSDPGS
For `CCc1ccc(OCc2ccc(C(=O)O)o2)cc1`, the “hERG current change (%, negative = inhibition) at 1uM” value is listed as 19.1%. On to `COC(=O)c1ccc(CNC(=O)C(NC(=O)c2ccco2)C(C)C)cc1` (stereo not shown), for which the “hERG current change (%, negative = inhibition) at 1uM” value is given as 6.42%.

Consider `COc1ccccc1NS(=O)(=O)c1cccc(NC(=O)c2sc3ccccc3c2Cl)c1`, for which the “hERG current change (%, negative = inhibition) at 1uM” value is on record as -15.6%. Consider `CC1CCCC(C)N1S(=O)(=O)c1ccc(NC(=O)CNC2CCCC2)cc1` (stereo not shown), for which the “hERG current change (%, negative = inhibition) at 1uM” value amounted to 3.78%. For `C=Cn1cc[n+](CC(=O)c2ccc(C)cc2)c1.[Br-]`, the “hERG current change (%, negative = inhibition) at 1uM” value was 7.88%. Regarding `CCN(Cc1ccccc1)C(=O)C1CCN(Cc2sccc2C)CC1.O=C(O)C(=O)O`, the “hERG current change (%, negative = inhibition) at 1uM” value is -13.9%. Turning to `CCOc1ccc(-c2cccc(NC(=O)c3cccs3)c2)nn1`, the “hERG current change (%, negative = inhibition) at 1uM” value was -1.34%. Take `C/C(=N\Nc1nc(Nc2ccccc2)nc(N2CCOCC2)n1)c1cccs1`: the “hERG current change (%, negative = inhibition) at 1uM” value stood at 15.8%. With `COc1ccc(NS(=O)(=O)c2cn(C)cn2)c(OC)c1` the figure was 21.5%; with `O=C(C1=C(O)C(=O)N(CCc2ccccc2)C1c1cccs1)c1ccco1` (stereo not shown), 5.27%. `COCc1[nH][nH]c(=O)c1C=Nc1ccc(C(F)(F)F)cc1`: the “hERG current change (%, negative = inhibition) at 1uM” value was -2.02%. The same measure for `O=C(c1ccc(Cl)cc1)N1CCN(CCOc2ccccc2)CC1`: -12.4%. In the case of `O=S(=O)(NCc1ccco1)c1cnc(Cl)c(Br)c1`, the “hERG current change (%, negative = inhibition) at 1uM” value amounted to 14.8%. As for `CCCNC(=O)/C(C#N)=C1\N=C(NC(=O)c2cccs2)c2ccccc21`, the “hERG current change (%, negative = inhibition) at 1uM” value worked out at 17.8%. Regarding `COc1ccc(CC(=O)NCc2n[nH]c(=S)n2-c2cccc(C)c2)cc1`, the “hERG current change (%, negative = inhibition) at 1uM” value worked out at 18.3%. On to `CC(C)Sc1nnc(OC(=O)N(C)C)n1-c1ccccc1`, for which the “hERG current change (%, negative = inhibition) at 1uM” value is recorded as -1.59%.

With `CN[C@@H]1C[C@@H](c2ccc(Cl)c(Cl)c2)c2ccccc21.Cl`, the “hERG current change (%, negative = inhibition) at 1uM” value is given as 14.1%.

Turning to `Cc1cc(/C=N/NC(=O)C(O)(c2ccccc2)c2ccccc2)c(C)n1-c1ccccc1`, the “hERG current change (%, negative = inhibition) at 1uM” value is reported as 6.18%. With `Cc1cc(Cl)ccc1NC(=O)CCN1C(=O)C2CCCCC2C1=O` (stereo not shown), the “hERG current change (%, negative = inhibition) at 1uM” value is on record as 15.5%. For `COc1cccc(CNC(=O)CCNC(=O)c2ccccc2OC)c1`, the “hERG current change (%, negative = inhibition) at 1uM” value is 3.87%. For `C=CCn1cnc2c(nnn2-c2ccc(OC)c(OC)c2)c1=O`, the “hERG current change (%, negative = inhibition) at 1uM” value is 7.37%. As for `CCn1c(SCC(=O)NCc2ccccc2)nc2c(c1=O)SC(C)C2` (stereo not shown), the “hERG current change (%, negative = inhibition) at 1uM” value worked out at 11.3%.

For the compound `COc1ccc(CCC(=O)Nc2cc(Cl)ccc2N2CCN(C)CC2)cc1`, the “hERG current change (%, negative = inhibition) at 1uM” value is given as -4.09%. For `COC(=O)CSc1ncnc2c1sc1nc(N3CCOCC3)c3c(c12)CCCC3`, the “hERG current change (%, negative = inhibition) at 1uM” value was determined as 17.5%.

Take `Cc1csc(CN(C)C(=O)c2cn(Cc3cccc4ccccc34)nn2)n1`: the “hERG current change (%, negative = inhibition) at 1uM” value was 14.4%.
